Assay results as given in the supplement of paper PMC8728848.
Some of the results follow.

Legend:
Assay in all cases: glycan array binding signal (z-score within array); higher = stronger binding
Conditions in all cases: glycan notation: IUPAC condensed, linker removed
[1] = molecular target: Neu5Ac(a2-6)Gal(b1-4)GlcNAc(b1-2)Man(a1-3)[Man(a1-6)]Man(b1-4)GlcNAc(b1-4)GlcNAc
Outline: (§1)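 The binding signal is a Z-score computed within each array. Data were drawn from 3228 arrays in the Consortium for Functional Glycomics database, restricted to those with a known protein sequence. Scores were averaged over arrays of the same protein sequence at different concentrations or buffers, and over linkers, and negative values can be taken as non-binding.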

[2] = molecular target: Neu5Ac(a2-6)Gal(b1-4)GlcNAc(b1-2)Man(a1-3)[Neu5Ac(a2-3)Gal(b1-4)GlcNAc(b1-2)Man(a1-6)]Man(b1-4)GlcNAc(b1-4)GlcNAc
Outline: as §1

[3] = molecular target: Neu5Ac(a2-6)Gal(b1-4)GlcNAc(b1-2)Man(a1-3)[Neu5Ac(a2-6)Gal(b1-4)GlcNAc(b1-2)Man(a1-6)]Man(b1-4)GlcNAc(b1-4)GlcNAc
Outline: as §1

[4] = molecular target: Neu5Ac(a2-6)Gal(b1-4)GlcNAc(b1-2)Man(a1-3)[Neu5Ac(a2-6)Gal(b1-4)GlcNAc(b1-2)Man(a1-6)]Man(b1-4)GlcNAc(b1-4)[Fuc(a1-6)]GlcNAc
Outline: as §1

[5] = molecular target: Neu5Ac(a2-6)Gal(b1-4)GlcNAc(b1-2)Man(a1-6)Man(b1-4)GlcNAc(b1-4)GlcNAc
Outline: as §1

[6] = molecular target: Neu5Ac(a2-6)Gal(b1-4)GlcNAc(b1-2)Man(a1-6)[Gal(b1-4)GlcNAc(b1-2)Man(a1-3)]Man(b1-4)GlcNAc(b1-4)GlcNAc
Outline: as §1

[7] = molecular target: Neu5Ac(a2-6)Gal(b1-4)GlcNAc(b1-2)Man(a1-6)[GlcNAc(b1-2)Man(a1-3)]Man(b1-4)GlcNAc(b1-4)GlcNAc
Outline: as §1

[8] = molecular target: Neu5Ac(a2-6)Gal(b1-4)GlcNAc(b1-2)Man(a1-6)[Man(a1-3)]Man(b1-4)GlcNAc(b1-4)GlcNAc
Outline: as §1

[9] = molecular target: Neu5Ac(a2-6)Gal(b1-4)GlcNAc(b1-2)[Neu5Ac(a2-6)Gal(b1-4)GlcNAc(b1-4)]Man(a1-3)[GlcNAc(b1-4)][Neu5Ac(a2-6)Gal(b1-4)GlcNAc(b1-2)[Neu5Ac(a2-6)Gal(b1-4)GlcNAc(b1-6)]Man(a1-6)]Man(b1-4)GlcNAc(b1-4)GlcNAc
Outline: as §1

[10] = molecular target: Neu5Ac(a2-6)Gal(b1-4)GlcNAc(b1-2)[Neu5Ac(a2-6)Gal(b1-4)GlcNAc(b1-4)]Man(a1-3)[GlcNAc(b1-4)][Neu5Ac(a2-6)Gal(b1-4)GlcNAc(b1-4)Man(a1-6)]Man(b1-4)GlcNAc(b1-4)GlcNAc
Outline: as §1

[11] = molecular target: Neu5Ac(a2-6)Gal(b1-4)GlcNAc(b1-2)[Neu5Ac(a2-6)Gal(b1-4)GlcNAc(b1-6)]Man(a1-6)[Neu5Ac(a2-6)Gal(b1-4)GlcNAc(b1-2)Man(a1-3)][GlcNAc(b1-4)]Man(b1-4)GlcNAc(b1-4)GlcNAc
Outline: as §1

[12] = molecular target: Neu5Ac(a2-6)Gal(b1-4)GlcNAc(b1-3)Gal(b1-3)GlcNAc
Outline: as §1

[13] = molecular target: Neu5Ac(a2-6)Gal(b1-4)GlcNAc(b1-3)Gal(b1-4)GlcNAc
Outline: as §1

[14] = molecular target: Neu5Ac(a2-6)Gal(b1-4)GlcNAc(b1-3)Gal(b1-4)GlcNAc(b1-2)Man(a1-3)[Neu5Ac(a2-6)Gal(b1-4)GlcNAc(b1-3)Gal(b1-4)GlcNAc(b1-2)Man(a1-6)]GalNAc
Outline: as §1

[15] = molecular target: Neu5Ac(a2-6)Gal(b1-4)GlcNAc(b1-3)Gal(b1-4)GlcNAc(b1-3)Gal(b1-4)GlcNAc
Outline: as §1

[16] = molecular target: Neu5Ac(a2-6)Gal(b1-4)GlcNAc(b1-3)Gal(b1-4)GlcNAc(b1-3)Gal(b1-4)GlcNAc(b1-2)Man(a1-3)[Neu5Ac(a2-6)Gal(b1-4)GlcNAc(b1-3)Gal(b1-4)GlcNAc(b1-3)Gal(b1-4)GlcNAc(b1-2)Man(a1-6)]GalNAc
Outline: as §1

[17] = molecular target: Neu5Ac(a2-6)Gal(b1-4)GlcNAc(b1-3)Gal(b1-4)GlcNAc(b1-3)GalNAc
Outline: as §1

[18] = molecular target: Neu5Ac(a2-6)Gal(b1-4)GlcNAc(b1-3)Gal(b1-4)GlcNAc(b1-3)[Neu5Ac(a2-6)Gal(b1-4)GlcNAc(b1-3)Gal(b1-4)GlcNAc(b1-6)]GalNAc
Outline: as §1

[19] = molecular target: Neu5Ac(a2-6)Gal(b1-4)GlcNAc(b1-3)Gal(b1-4)GlcNAc(b1-6)[Gal(b1-3)]GalNAc
Outline: as §1

[20] = molecular target: Neu5Ac(a2-6)Gal(b1-4)GlcNAc(b1-3)Gal(b1-4)[Fuc(a1-3)]GlcNAc(b1-3)Gal(b1-4)[Fuc(a1-3)]GlcNAc
Outline: as §1

[21] = molecular target: Neu5Ac(a2-6)Gal(b1-4)GlcNAc(b1-3)GalNAc
Outline: as §1

[22] = molecular target: Neu5Ac(a2-6)Gal(b1-4)GlcNAc(b1-3)[Neu5Ac(a2-6)Gal(b1-4)GlcNAc(b1-6)]GalNAc
Outline: as §1

[23] = molecular target: Neu5Ac(a2-6)Gal(b1-4)GlcNAc(b1-6)GalNAc
Outline: as §1

[24] = molecular target: Neu5Ac(a2-6)Gal(b1-4)GlcNAc(b1-6)[Gal(b1-3)GlcNAc(b1-3)]Gal(b1-4)Glc
Outline: as §1

[25] = molecular target: Neu5Ac(a2-6)Gal(b1-4)GlcNAc(b1-6)[Gal(b1-3)]GalNAc
Outline: as §1

[26] = molecular target: Neu5Ac(a2-6)Gal(b1-4)GlcNAc6S
Outline: as §1

Neu5Ac(a2-6)GalNAc = molecular target: Neu5Ac(a2-6)GalNAc
Outline: as §1

[27] = molecular target: Neu5Ac(a2-6)GalNAc(b1-4)GlcNAc
Outline: as §1

[28] = molecular target: Neu5Ac(a2-6)GalNAc(b1-4)GlcNAc6S
Outline: as §1

[29] = molecular target: Neu5Ac(a2-6)GlcNAc(b1-4)GlcNAc
Outline: as §1

[30] = molecular target: Neu5Ac(a2-6)GlcNAc(b1-4)GlcNAc(b1-4)GlcNAc
Outline: as §1

B1: Epa10 (protein)
chain: MNEKIFRYLTLLFLFELARSLPVEDKLNIKKVFEKRAVDFTPFAHYPRPEGCSSPPNSVSVGLHMNLYNYPYLYVKPSTKGMFTNDTNSDADGETDGDSAGGIEGRAGQCWNPEYQDPNFPRFGYKQYGEFGASDNVNGDISWDHNEFTEGCKPVLAALPPGYNYPDEITFSNFTMVLSGYFKPKTSGVYKFELKADDFILFNFGAKNAFECCNREESIDNFGPYVAYAMWPNQADQELEVYLFEDSYYPLRLFYNNRDYHSKFKIGFYPPGQTTITFDFDGYLFMLDDTGNECRDSIRYRTVCDDKVVDDTTYSTRYSTSMVPGGGSDVITIYYIRMKCEEEDCLGQWDPINNVCYSPDDCADDGGYWNGQMCDQSCKLEGGIVNPDTGDCDKSCIESGGFLDENGNCDTTCRDDGGMLVEGQCDYQCKEAGGILVGDHCDTTCVDSGGKLNEDGTCDHSCRDQGGQLDENGECDTSCKDSGGMLIEGECDTSCKDEGGQLDDNNECINHCKDQGGIIDENGNCDTSCKDSGGKLDESGACDTSCRDDGGIIDENGNCNTTCRDDGGIIVGDHCDTSCRDAGGILIEDHCDTTCRDSGGKLNEDGTCDHSCRDQGGQLDENGKCDYSCKNGGGKLDEDGNCDMSCKENGGKLDENGDCDLSCKEDGGKLDGNGDCDYSCKEEGGVIDESGNCNTTCKDSGGQIIDGECNYGCIEVGGVVIDGECDTSCIDSGGILDGDGNCDRSCIESGGVLEDGACNTTCRDSGGQLNVDGTCDTSCRDDGGMLVEGQCDYQCKEAGGILEDGECVFPPTSSSTSETSSTTDQSSLQSDDSSMESSSTPMDSSTIESSSSEIITSESESESVPIASSSSEVMTSESESESIPILTSSSEIPIASSSSEIPVASSSSEIIIPESESESVPVASSSSEIPIASSSSEIPVASSSSEIPVASSSSEIIIPESESESIPIESTSSEAVSSRSESDSSYPTPTPTTTTITTWPNPIQPTTSNSSPIVSSSTETPGIAESSSRISDLESSRRTSILGDDRTRTRTTITSTITEDGQIITITTTVTGFVPEPTGETEGNGSDDENPENPIENNTDENEFLDPEFTDDIPDDPAGPEDNGNGPVNPEQGNDNDPVNLEDSGNNGAVNPEQAPVNDEDNGGNDPVNPEQDNNNGPANPGQDSTNGSGNSDQIDNNPPTPEENAGDGNSNGNDPADPSRRTSILGDERTRASPGGTSQPTGANGNVNGNSPGANVNGGGTGNSNNNNNNNNNNNNGNAPNGGDGSNGDANQGPSRRTSLLGDERTRAGQAAPTGGSSPDNGIAGDTSNNGGAIVSQQVDDGGAGSPRRTSILGDVRSRTTLNGEVLNFEGSGVRRAVAGNLALPLMMVGLVFNL
- glycan array binding signal (z-score) [1]: -0.263
- glycan array binding signal (z-score) [2]: -0.177
- glycan array binding signal (z-score) [3]: -0.231
- glycan array binding signal (z-score) [4]: -0.24
- glycan array binding signal (z-score) [5]: -0.104
- glycan array binding signal (z-score) [6]: -0.232
- glycan array binding signal (z-score) [7]: -0.21
- glycan array binding signal (z-score) [8]: -0.281
- glycan array binding signal (z-score) [9]: -0.211
- glycan array binding signal (z-score) [10]: -0.17
- glycan array binding signal (z-score) [11]: -0.287
- glycan array binding signal (z-score) [12]: -0.258
- glycan array binding signal (z-score) [13]: -0.253
- glycan array binding signal (z-score) [14]: 0.026
- glycan array binding signal (z-score) [15]: -0.248
- glycan array binding signal (z-score) [16]: -0.016
- glycan array binding signal (z-score) [17]: -0.163
- glycan array binding signal (z-score) [18]: -0.177
- glycan array binding signal (z-score) [19]: 0.429
- glycan array binding signal (z-score) [20]: -0.139
- glycan array binding signal (z-score) [21]: -0.081
- glycan array binding signal (z-score) [22]: -0.239
- glycan array binding signal (z-score) [23]: -0.204
- glycan array binding signal (z-score) [24]: -0.227
- glycan array binding signal (z-score) [25]: 0.906
- glycan array binding signal (z-score) [26]: -0.208
- glycan array binding signal (z-score) (Neu5Ac(a2-6)GalNAc): -0.217
- glycan array binding signal (z-score) [27]: -0.281
- glycan array binding signal (z-score) [28]: -0.254
- glycan array binding signal (z-score) [29]: -0.278
- glycan array binding signal (z-score) [30]: -0.206
